This is an account of results in ChEMBL document CHEMBL4888484, “Replenishing the malaria drug discovery pipeline: Screening and hit evaluation of the MMV Hit Generation Library 1 (HGL1) against asexual blood stage Plasmodium falciparum ,using a nano luciferase reporter read-out” (2022).

The structures appear in SMILES notation. Screen size: about 150,000 compounds; about 540 (0.36%) showed an effect of 50% or more. The list shows a part of the results.

The assay deals with Plasmodium falciparum. The assay can be described thus: Primary screen in NF54 nanoGlo assay, in single point, at 2uM, 72h; a lower Z score goes with more inhibition. Format: functional, Erythrocyte. To be noted: timepoint 72 hour.
In general, % Inhibition refers to the relative decrease from the control value, in per cent. Consider `CC(=O)N1CCCC[C@@H]1CCS(=O)(=O)N1CCN(C)c2cc(Cl)ccc21`, for which the “% Inhibition” value is -9% and the Z score is 1.72.

For `NC(=O)CNC(=O)CCc1cc(Cl)ccc1Br`, the “% Inhibition” value is given as 3% and the Z score is on record as -0.37.

Turning to `O=C(NCc1cc2n(n1)CCCO2)c1cnn(C2CCC2)c1`, the “% Inhibition” value was -5% and the Z score turned out to be 0.63.

Consider `Cc1nc(N2CCCC2)n(Cc2ccncc2)c(=O)c1C`, for which the “% Inhibition” value is 11% and the Z score is reported as -1.06.

As for `CCOc1ccccc1C(=O)N1CC2(C[C@H](CC(=O)NCc3ccncc3)CO2)C1`, the “% Inhibition” value is given as -1% and the Z score was 0.1.

Take `Cc1nc(-c2ccc(S(=O)(=O)Cl)cc2)c(C)o1`: the “% Inhibition” value is -17% and the Z score is 2.34.

Consider `COc1ccc(N2CCN(c3ncccc3-c3nc(-c4ccccc4)no3)CC2)cc1`, for which the “% Inhibition” value came to 17% and the Z score is given as -1.95.

With `CCOc1cc2c(cc1CNCc1cccc(CO)c1)CCC2`, the “% Inhibition” value is -21% and the Z score is given as 2.13.

For the compound `CCCCN1CCN(C(=O)NCc2noc(CCOC)n2)CC1`, the “% Inhibition” value came out at 0% and the Z score is 0.05.

Regarding `CCCn1cc(CNS(=O)(=O)c2ccsc2C#N)nn1`, the “% Inhibition” value is recorded as -6% and the Z score is listed as 0.69.

On to `Cc1nnc(NC2CCCCC2)n(C)c1=O`, for which the “% Inhibition” value is -2% and the Z score came out at 0.24.

With `CCN1CCN(CCC(=O)N[C@H]2CCc3ccccc32)CC1`, the “% Inhibition” value is -15% and the Z score amounted to 2.3.

With `Cc1ncc2c(c1-c1noc(Cn3nc4ccccc4n3)n1)CCNC2`, the “% Inhibition” value is -9% and the Z score was determined as 1.52.

As to `O=C(Nc1cccs1)O[C@H]1COCCN(c2nc3ccccc3o2)C1`, the “% Inhibition” value was -12% and the Z score was 1.5.

Consider `O=S(=O)(c1ccccc1)N1CCN(S(=O)(=O)c2ccc(Cl)cc2)C1`, for which the “% Inhibition” value was 38% and the Z score is on record as -4.86.

For `O=C(Nc1ccc2c(c1)OCCO2)c1ccc2nccnc2n1`, the “% Inhibition” value is -45% and the Z score is given as 5.31.

Take `O=C(NC1CCC1)c1ccc(S(=O)(=O)NCc2ccccn2)cc1`: the “% Inhibition” value is -2% and the Z score turned out to be 0.3.

On to `COc1ccc2oc(CNC(=O)c3cc4c(n(C)c3=O)CCCC4)nc2c1`, for which the “% Inhibition” value is recorded as -13% and the Z score is reported as 2.15.

For the compound `CC[C@@H]1OC2(CCN(Cc3ccc(Br)cc3Cl)CC2)NC1=O`, the “% Inhibition” value is -5% and the Z score came out at 0.83.

In the case of `O=C(NCCc1ccsc1)c1ccncc1`, the “% Inhibition” value was found to be 9% and the Z score is recorded as -1.37.

For `Cc1cc(C)nc(CN(C)c2nccc(N3CCC[C@H](O)C3)n2)c1`, the “% Inhibition” value is listed as -10% and the Z score is listed as 1.65.

For `Cc1sc(NC(=O)c2cn(Cc3cccnc3)nn2)nc1-c1ccc(F)cc1`, the “% Inhibition” value was -3% and the Z score was 0.37.

`Cc1noc(COC2CCN(C(=O)c3n[nH]c4ccccc34)CC2)n1`: the “% Inhibition” value is recorded as 0% and the Z score turned out to be 0.04.

Regarding `O=C(NCC1(COc2ccccc2)CC1)[C@H]1C[C@H]2C=C[C@@H]1C2`, the “% Inhibition” value was -17% and the Z score came to 1.98.

In the case of `O=C(Cn1cc(C(=O)N2CCc3ccncc32)cn1)NC1CCCCC1`, the “% Inhibition” value is listed as 3% and the Z score was -0.47.

Regarding `Cc1ccncc1C(=O)N[C@@H](C)c1cnn(-c2ccccc2C)c1C`, the “% Inhibition” value came out at 9% and the Z score is -1.19.

Take `CN(C)[C@H]1[C@@H]2CC[C@H]1CN(Cc1ccccc1Cn1cccn1)C2`: the “% Inhibition” value is listed as -8% and the Z score is recorded as 1.45.

In the case of `O=C(CC1CC1)N(Cc1c(F)cccc1F)C1CC1`, the “% Inhibition” value was 1% and the Z score is -0.16.

`CC(C)c1ccc([C@@]2(C(F)(F)F)Cc3c(C#N)cccc3O2)cc1`: the “% Inhibition” value is on record as -27% and the Z score worked out at 3.16.

For the compound `CN(C)c1ccc(CNS(=O)(=O)c2ccc(-c3cc(C(F)(F)F)on3)o2)cc1`, the “% Inhibition” value was -13% and the Z score is listed as 2.18.

In the case of `CC[C@@H](C(=O)NCC1(COc2ccccc2)CC1)n1cccn1`, the “% Inhibition” value amounted to 1% and the Z score is reported as -0.06.

Turning to `O=C(NCCCN1CCCCC1)C1CCN(Cc2nnc(-c3cccc(Cl)c3)o2)CC1`, the “% Inhibition” value is given as 33% and the Z score is -3.79.

Regarding `CCOc1ccc(NC(=O)c2cnc3c(c(C)nn3-c3ccc(C)cc3)c2O)cc1`, the “% Inhibition” value was -12% and the Z score is 1.58.

As to `O=C(Nc1nc(C(=O)NCCCN2CCOCC2)cs1)c1cccc(Cl)c1`, the “% Inhibition” value is listed as -6% and the Z score is recorded as 1.01.

Turning to `Fc1ccccc1CN1CCC(CNc2nc(-c3ccccc3)no2)CC1`, the “% Inhibition” value is recorded as -15% and the Z score was 1.36.

`CCCc1cc(CN(C)Cc2ccc3c(ccn3C)c2)n[nH]1`: the “% Inhibition” value is -6% and the Z score is listed as 0.7.

Regarding `CC(C)C(=O)NC[C@H]1CCCCC(=O)N1`, the “% Inhibition” value is given as 3% and the Z score is listed as -0.6.

In the case of `CC1CN(C(C)C)CC1NS(=O)(=O)C1CCOC1` (configuration not stated), the “% Inhibition” value is on record as -10% and the Z score turned out to be 1.46.

Turning to `O=C(CCc1ccccc1)N1CC2(C[C@H](N3CCCC3)CO2)C1`, the “% Inhibition” value was -8% and the Z score was 0.88.

On to `CCC(Nc1nnnn1-c1ccccc1)C(=O)N1CCC(CNC)C1` (configuration not stated), for which the “% Inhibition” value was -5% and the Z score was determined as 0.68.

As to `Cn1ncnc1CCNC(=O)CCC(=O)N1CCCCCC1`, the “% Inhibition” value is listed as -11% and the Z score is given as 1.75.

Consider `O=C(CCC[C@@H]1[C@H]2CCCN3CCC[C@@H](CN1C(=O)c1ccccc1F)[C@@H]23)NCC1CC1`, for which the “% Inhibition” value was -3% and the Z score is 0.55.

In the case of `COc1ccc(C(=O)N2CC3CN(Cc4ccccc4)CC3C2)cc1` (configuration not stated), the “% Inhibition” value is 5% and the Z score is -0.7.

Consider `CC1CN(C(=O)Cc2noc3ccccc23)C(C)CO1` (configuration not stated), for which the “% Inhibition” value was -6% and the Z score was 0.9.

As to `CC1(C2CCN(C(=O)C(=O)NC3CC3)CC2)OCCO1`, the “% Inhibition” value was -5% and the Z score stood at 1.

As for `COc1cc(-c2nc3cc(C)ccc3o2)cc2c1OCO2`, the “% Inhibition” value is reported as -11% and the Z score was determined as 2.03.

On to `COc1ncc(C#N)c(C)c1Br`, for which the “% Inhibition” value is reported as -4% and the Z score came out at 0.76.

`C=C1C2(C(=O)N3CCN(c4ccccc4)CC3)CCC(C2)C1(C)C` (configuration not stated): the “% Inhibition” value is recorded as -17% and the Z score stood at 2.02.

As for `O=C1CN(Cc2cn(C3CCN(C(=O)[C@@H]4CC=CCC4)CC3)nn2)CCN1`, the “% Inhibition” value was 6% and the Z score is given as -0.79.

Take `C[C@@H]1CN(c2nccnc2C#N)C[C@H]1CO`: the “% Inhibition” value is listed as -1% and the Z score stood at 0.1.

For the compound `O=C(N[C@@H]1CN(C(=O)c2ccccn2)CC[C@@H]1CO)c1ccccc1`, the “% Inhibition” value is recorded as -8% and the Z score was 1.03.

On to `Cc1cccc(-c2cc(Nc3ccc(Oc4ccccc4)cc3)nc(C)n2)c1`, for which the “% Inhibition” value is on record as 5% and the Z score is given as -0.65.

On to `Cc1ccc(CCNC(=O)CCn2nc(-c3ccc(C)cc3)ccc2=O)cc1`, for which the “% Inhibition” value is reported as -14% and the Z score was 2.2.

As to `O=C(CN1CCCC1CC(O)c1ccccc1)NCc1ccco1` (configuration not stated), the “% Inhibition” value is -3% and the Z score is listed as 0.3.

On to `c1cn(CCCOc2ccc3c(c2)OCO3)nn1`, for which the “% Inhibition” value was found to be 37% and the Z score is reported as -5.39.

For the compound `Cc1cccc(C)c1Oc1ncccc1CNC(=O)[C@@H]1CCCCN1C`, the “% Inhibition” value is listed as -11% and the Z score is listed as 1.26.
